The campaign covered roughly 110,000 compounds. About 230 (0.21%) showed an effect of 50% or more. The list shows a part of the results.
biological target: DPAP1 (Plasmodium falciparum, UniProt Q8IIJ9); experiment: primary screen, percent inhibition; read by cleavage of a fluorogenic dipeptide substrate; higher = more effect of the substance; parameters: species or system P. falciparum D10 trophozoite lysates; single well
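Note: 30 min substrate incubation versus DMSO and 10 µM JCP410 controls.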

Sequence of DPAP1 (Q8IIJ9 whole entry, looked up): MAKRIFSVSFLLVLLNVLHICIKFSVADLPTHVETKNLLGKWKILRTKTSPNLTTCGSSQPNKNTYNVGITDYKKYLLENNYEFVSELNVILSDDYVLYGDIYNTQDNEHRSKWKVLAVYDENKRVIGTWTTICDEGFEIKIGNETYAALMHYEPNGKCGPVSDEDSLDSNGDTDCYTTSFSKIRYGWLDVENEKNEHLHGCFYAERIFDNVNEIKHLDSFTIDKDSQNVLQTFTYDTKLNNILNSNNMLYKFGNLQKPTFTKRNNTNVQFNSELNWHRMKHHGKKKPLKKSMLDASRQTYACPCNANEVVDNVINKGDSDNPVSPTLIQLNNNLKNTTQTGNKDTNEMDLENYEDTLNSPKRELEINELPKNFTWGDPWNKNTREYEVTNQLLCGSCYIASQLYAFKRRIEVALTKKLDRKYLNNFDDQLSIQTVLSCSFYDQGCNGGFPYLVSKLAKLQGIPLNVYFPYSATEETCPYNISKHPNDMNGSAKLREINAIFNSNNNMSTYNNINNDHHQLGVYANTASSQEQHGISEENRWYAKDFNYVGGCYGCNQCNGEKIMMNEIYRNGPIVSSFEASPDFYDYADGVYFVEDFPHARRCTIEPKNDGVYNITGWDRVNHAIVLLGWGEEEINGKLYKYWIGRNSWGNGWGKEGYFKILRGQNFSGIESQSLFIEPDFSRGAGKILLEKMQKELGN

Structure (SMILES)	% Inhibition @ 10 uM
NC(=O)C1CCN(Cc2cccc(Oc3ccccc3)c2)CC1	1.88%
Cc1ccc(/C=C(/C#N)C(=O)Nc2ccc(Cl)cc2)o1	-1.32%
CCCC1=Nc2ncnn2C(c2ccc(F)cc2)/C1=C(/O)OCC (stereo not drawn)	1.76%
CCOc1ccc(CCNC(=O)c2oc3ccc4c(c3c2C)C(=O)CC(C)(C)O4)cc1OCC	1.52%
CCC(C)NC(=O)c1ccc2c(c1)sc1nc(-c3ccc(C)cc3)cn12 (stereo not drawn)	-2.37%
CCn1cc(C2=NOC(C(=O)N3CCC(C)CC3)C2)c(C)n1 (stereo not drawn)	-4.85%
CN(C1CCCCC1)S(=O)(=O)N1CCCC(C(=O)N2CCN(c3ccccn3)CC2)C1 (stereo not drawn)	3.61%
Cc1cc(C)cc(NC=C2C(=O)CC(c3ccccc3)CC2=O)c1 (stereo not drawn)	-0.105%
Nc1c(Cl)cc2c(c1Cl)C(=O)c1ccccc1C2=O	25.7%
O=C(O)c1ccc(N2C(=O)c3ccccc3C2=O)cc1Cl	-1.32%
CC12CN3CC(C)(CN(C1)C31C(=O)Nc3ccccc31)C2O (stereo not drawn)	-1.99%
COCC(=O)n1nc(-c2ccc(Cl)cc2)nc1NCc1ccc(OC)cc1	3.93%
Cc1ccc(C2c3c(-c4c(C)cc(C)cc4O)n[nH]c3C(=O)N2CCCO)cc1 (stereo not drawn)	-1.71%
Cc1nn(C)c(C)c1S(=O)(=O)N1CCC(C(=O)NC(c2ccccc2)c2ccccc2)CC1	2.39%
COc1ccccc1C1=NOC(C(=O)N(C)C2CCCCC2)C1 (stereo not drawn)	9.05%
Fc1ccccc1N1CCN(C2CN3CCC2CC3)CC1 (stereo not drawn)	-0.0908%
COc1ccc(S(=O)(=O)Nc2c(C)nc3ncnn3c2O)cc1OC	1.3%
Cc1ccc(Sc2cc(C(=O)N3CCC4(CC3)OCCO4)c3ccccc3n2)cc1	-6.49%
CCS(=O)(=O)c1nc(S(=O)(=O)c2ccc(C)cc2)c(NCCCN2CCOCC2)s1	-4.04%
Fc1ccc(COc2ccc(Cl)cc2CNCC2CCCO2)cc1 (stereo not drawn)	2.01%
CCOc1ccc(NC=C2C(=O)CC(c3ccco3)CC2=O)cc1 (stereo not drawn)	0.673%
Cc1cccc(C(=O)Nc2nc(C)cc(C)n2)c1	-7.11%
CCOC(=O)c1sc2nc(SCC(=O)N3CCCC3)n(Cc3ccc(C)cc3)c(=O)c2c1C	-4.38%
COc1ccc(OCCCN2CCCCC2)cc1	0.634%
O=C(Nc1ccccc1[N+](=O)[O-])c1cc(S(=O)(=O)N2CCCCC2)ccc1Cl	3.25%
CNC(=O)C1=NCC2(CCCC2)c2cc(OC)c(OC)cc21	2.65%
O=S(=O)(c1ccc(Cl)cc1)c1ccc(-c2ccccc2)cc1	-0.712%

— PMC6919601, “Identification of Plasmodium dipeptidyl aminopeptidase allosteric inhibitors by high throughput screening” (PLoS ONE, 2019)
